# Reference: the GPR68 mutational scans of Howard et al. (2025)
# The least precise scores are not listed. The source holds two more conditions with little spread; they are left out. Read del as a deletion of the residues named and ins as an insertion between two positions. For some of these results: The data file names ogerin without a concentration.
# B1: GPR68, Q15743 (parent)
# chain: MGNITADNSSMSCTIDHTIHQTLAPVVYVTVLVVGFPANCLSLYFGYLQIKARNELGVYLCNLTVADLFYICSLPFWLQYVLQHDNWSHGDLSCQVCGILLYENIYISVGFLCCISVDRYLAVAHPFRFHQFRTLKAAVGVSVVIWAKELLTSIYFLMHEEVIEDENQHRVCFEHYPIQAWQRAINYYRFLVGFLFPICLLLASYQGILRAVRRSHGTQKSRKDQIQRLVLSTVVIFLACFLPYHVLLLVRSVWEASCDFAKGVFNAYHFSLLLTSFNCVADPVLYCFVSETTHRDLARLRGACLAFLTCSRTGRAREAYPLGAPEASGKSGAQGEEPELLTKLHPAFQTPNSPGSGGFPTGRLA
# What was measured:
# [1] = variants of: B1; assay: cAMP reporter score (Enrich2 score, wild type = 0); higher = more signal; HEK293T, FACS bins
# [2] = variants of: B1; assay: surface expression score (Enrich2 score, wild type = 0); higher = more signal; HEK293T, FACS bins
Variant,cAMP reporter score ([1]; pH 5.5),cAMP reporter score ([1]; pH 6),"cAMP reporter score ([1]; pH 6, modulator: ogerin)","cAMP reporter score ([1]; pH 6.5, modulator: ogerin)",surface expression score [2]
MGNITADNSSMSCTIDHTIHQTLAPVVYVTVLVVGFPANCLSLYFGYLQIKARNELGVYLCNLTVADLFYICSLPFWLQYVLQHDNWSHGDLSCQVCGILLYENIYISVGFLCCISVDRYLAVALPFRFHQFRTLKAAVGVSVVIWAKELLTSIYFLMHEEVIEDENQHRVCFEHYPIQAWQRAINYYRFLVGFLFPICLLLASYQGILRAVRRSHGTQKSRKDQIQRLVLSTVVIFLACFLPYHVLLLVRSVWEASCDFAKGVFNAYHFSLLLTSFNCVADPVLYCFVSETTHRDLARLRGACLAFLTCSRTGRAREAYPLGAPEASGKSGAQGEEPELLTKLHPAFQTPNSPGSGGFPTGRLA [H125L],-1.07,-1.12,-1.36,-0.966,-2.03
MGNITADNSSMSCTIDHTIHQTLAPVVYVTVLVVGFPANCLSLYFGYLQIKARNELGVYLCNLTVADLFYICSLPFWLQYVLQHDNWSHGDLSCQVCGILLYENIYISVGFLCCISVDRYLAVANPFRFHQFRTLKAAVGVSVVIWAKELLTSIYFLMHEEVIEDENQHRVCFEHYPIQAWQRAINYYRFLVGFLFPICLLLASYQGILRAVRRSHGTQKSRKDQIQRLVLSTVVIFLACFLPYHVLLLVRSVWEASCDFAKGVFNAYHFSLLLTSFNCVADPVLYCFVSETTHRDLARLRGACLAFLTCSRTGRAREAYPLGAPEASGKSGAQGEEPELLTKLHPAFQTPNSPGSGGFPTGRLA [H125N],-0.471,-0.243,-0.61,-0.402,-0.598
